Hit rate of the full screen: of about 420,000 compounds, about 64,000 (15%) were called active. The inconclusive results got no clear call from the source; some entries with a clear call stand among them for comparison. Calls follow the shape of the dose curve; as a rule, active = well fitted inhibition curve with a large enough effect; inconclusive = small, poorly fitted or top-dose-only effect; inactive = flat fitted curve, though single readings scatter. No potency is given beside an inconclusive call; the fits are too rough.
Assay: qHTS for Inhibitors of human tyrosyl-DNA phosphodiesterase 1 (TDP1): qHTS in cells in absence of CPT; also: nearly all actives have a fitted effect of over 55% in size
Settings: DT40 Tdp1-/- hTDP1 cells, no CPT, ATP luminescence, 48 h; activity change, negative = growth inhibition: at 46.2 µM (top of the series) unless noted
How it was run: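 Seeded 400 DT40-hTDP1 cells/well (vehicle DMSO, no 20 nM CPT); pinned compounds; ≥48 hr at 37 °C; CellTiter-Glo luminescence as viability measure.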
% is scaled to controls: 0 for no effect and ±100 for the full control effect; potency is read from the fitted curve at half-maximal effect; tags tell the direction and shape of the fitted curve.

Row | SMILES | Potency | activity change, negative = growth inhibition
1 | CNc1ccc(N=Nc2cccc3ncccc23)cc1 | inconclusive [inhibitor, single point] | 
2 | CCOC(=O)c1c(SCC(=O)Nc2nccs2)nc(C)c(C)c1C | inconclusive [inhibitor, partial curve] | 
3 | Cc1ccc(-n2ncc3c2CCCC3NC(=O)c2cnccn2)cc1C (centres undefined) | inconclusive [inhibitor, single point] | 
4 | COc1ccc(Sc2ccc(NC(=O)c3cccc(Cl)c3)cc2C#N)cc1 | active: 23.1 µM | 
5 | COc1cccc(NS(=O)(=O)c2ccc3c(c2)CC(=O)N3)c1 |  | inactive: -7.17%
6 | Cc1nc2ccc(Cl)cn2c1[N+](=O)[O-] |  | inactive: 0.0006%
7 | COc1ccc(CNc2ccc3cn[nH]c3c2)c(OC)c1OC | inconclusive [inhibitor, single point] | 
8 | CC(=O)c1c(C)[nH]c(C(=O)OCC(=O)C(C)(C)C)c1C |  | inactive: -5.43%
9 | CCOC(=O)C1=C(COC(=O)c2nc(Cl)ccc2Cl)NC(=O)NC1C (centres undefined) |  | inactive: 5.93%
10 | O=C(CSCc1ccccc1)N1CCN(c2ccc(F)cc2)CC1 | inconclusive [inhibitor, single point] | 
11 | C[C@H](CO)N1C[C@H](C)[C@H](CN(C)C(=O)NC2CCCCC2)Oc2cc(-c3cccnc3)ccc2S1(=O)=O | inconclusive [inhibitor, partial curve, poor fit] | 
12 | O=S(=O)(Nc1cccc2c1CCCC2)c1cccc(C(F)(F)F)c1 | inconclusive [inhibitor, single point] | 
13 | CC(C)[C@H](NC(=O)c1ccccc1Cl)C(=O)OCC(=O)NCc1ccc2c(c1)OCO2 |  | inactive: -9.25%
14 | CNC(=O)c1nc(C)c(C2(C)CC(c3ccccc3)=NO2)s1 (centres undefined) |  | inactive: -27.7%
15 | CC(C)(C)N=C1NN=C(c2ccc(S(=O)(=O)N3CCCCC3)cc2)CS1 | inconclusive [inhibitor, single point] | 
16 | CCCC(=O)Nc1nc2ccc(NC(=O)c3ccccc3F)cc2s1 | active: 2.06 µM | 
17 | COc1ccc(NS(=O)(=O)c2cc(NC(=O)c3cc(F)c(F)c(F)c3F)ccc2N2CCCC2)cc1 | inconclusive [inhibitor, single point] | 
18 | CCOC(=O)C1CCN(S(=O)(=O)c2cccc(-c3csc(C)n3)c2)CC1 | inconclusive [inhibitor, single point] | 
19 | CCN(CC)S(=O)(=O)c1ccc(N/N=C/c2ccc(O)cc2)nc1 |  | inactive: -26.8%
20 | CCCCN1C(=O)CCC(C(=O)O)C1c1ccc([N+](=O)[O-])cc1 (centres undefined) |  | inactive: 18.2%
21 | CCc1cc2c(SCC(=O)c3ccc(Cl)s3)ncnc2s1 | inconclusive [inhibitor, partial curve, poor fit] | 
22 | COCCCNC(=O)c1ccc2c(c1)ncn2-c1ccccc1OC | inconclusive [inhibitor, single point] | 
23 | CSCCC(NC(=O)COc1ccccc1)C(=O)NCC1COc2ccccc2O1 (centres undefined) |  | inactive: -28%
24 | COc1ccc(-c2nc(CS(=O)CC(=O)NCc3ccccc3OC)c(C)o2)cc1 (centres undefined) |  | inactive: -22.4%
25 | CS(=O)(=O)c1cccc(C(=O)Nc2cccc(-c3nc4ccccc4[nH]3)c2)c1 | inconclusive [inhibitor, partial curve] | 

Row | SMILES | Potency | activity change, negative = growth inhibition
26 | COCCNC(=O)CN(CCc1ccccc1)S(=O)(=O)c1ccc(OC)cc1 |  | inactive: 4.1%
27 | O=C(O)CCCCn1c(SCc2ccccc2Cl)nc2ccsc2c1=O | inconclusive [inhibitor, single point] | 
28 | CN1C(=O)c2cccc3c(S(=O)(=O)Nc4ccccn4)ccc1c23 | inconclusive [inhibitor, single point] | 
29 | CCCCC1=CC2=CC(=O)C(C)(OC(=O)CC)C(=O)C2=CN1c1ccccc1 (centres undefined) | active: 16.4 µM | 
30 | CCCN(CCC)C(=O)CC(c1ccccc1)C1CCOC(C)(C)C1 (centres undefined) | active: 23.1 µM | 
31 | COc1cc2oc(=O)cc(CN3CCN(c4ccccc4F)CC3)c2cc1Cl | inconclusive [inhibitor, partial curve] | 
32 | FC(F)(F)c1cccc(N2CCc3cn[nH]c32)c1 | inconclusive [inhibitor, single point] | 
33 | CCCCN(C)C(=O)c1ccc(Nc2nc(C(N)COCc3ccccc3)cs2)nc1 (centres undefined) | active: 14.6 µM | 
34 | COc1cccc(-c2nc(-c3ccccc3)[nH]c(=O)c2C#N)c1 |  | inconclusive: -31.7% [inhibitor]
35 | O=C(Cc1cccs1)Nn1c(Cc2cccs2)nc2ccccc2c1=O |  | inactive: 0.443%
36 | CCOC(=O)C1=C(C)N(C[C@@H]2CC[C@@H](Cc3ccc(-c4ccccc4)cc3)O2)C(=O)NC1c1ccc(Cl)cc1 (some centres undefined) | active: 20.6 µM | 
37 | Cc1ccc(-c2csc(NCCc3nc4cc(Cl)c(Cl)cc4n3CCCO)n2)cc1 | inconclusive [inhibitor, single point] | 
38 | Cc1cccc(C)c1Nc1sc(C(=O)c2ccccc2)c(N)c1C(=O)Nc1ccc(F)cc1 | active: 20.6 µM | 
39 | C=C1C=C(C)n2ncc(C(=O)NCCCCCC)c2N1 | inconclusive [inhibitor, single point] | 
40 | COc1ccc(C(C(=O)Nc2c(C)cccc2C)N2CCN(c3ccc(C)cc3)CC2)cc1 (centres undefined) | inconclusive [inhibitor, single point] | 
41 | CC(CNC(=O)C(C)C)NC(=O)C(C)C (centres undefined) |  | inactive: -8.9%
42 | O=C(Nc1nnc(CCc2ccccc2)s1)c1cccc(F)c1 |  | inactive: -15.4%
43 | C[C@H](NC(N)=O)C(=O)N1CCN(S(=O)(=O)c2ccc3ccccc3c2)CC1 |  | inactive: -13.4%
44 | CCCC[C@@H]1C[C@H]1[C@@H](NC(=O)c1cccs1)c1ccc(Cl)cc1 | active: 14.6 µM | 
45 | COc1cccc(Cn2cccc(NC(=O)NC3CCCCC3)c2=O)c1 |  | inactive: -27.3%
46 | Cc1c(C(=O)Nc2ccc3c(c2)CCC3)cccc1[N+](=O)[O-] | inconclusive [inhibitor, single point] | 
47 | O=C(Nc1nc2ccc(S(=O)(=O)N3CCCCC3)cc2s1)c1cccnc1 | inconclusive [inhibitor, partial curve, poor fit] | 
48 | N=c1c2c(ncn1Cc1ccco1)Oc1cc(O)ccc1C2c1ccccc1 (centres undefined) | inconclusive [inhibitor, partial curve] | 
49 | COc1cccc(-c2ccc3c(N)c(C(=O)c4ccc(Cl)cc4)sc3n2)c1 | active: 7.31 µM | 
50 | CN(C)S(=O)(=O)c1cccc(C(=O)Nc2ccccc2C(=O)NC2CC2)c1 | inconclusive [inhibitor, single point] | 

Row | SMILES | Potency | activity change, negative = growth inhibition
51 | O=C(CSc1nnc(-c2cccnc2)n1-c1ccc(SC(F)F)cc1)N1CCCc2ccccc21 | inconclusive [inhibitor, single point] | 
52 | CCc1cccc(NC(=O)Cn2nc(-c3ccc(OC)cc3)ccc2=O)c1 | inconclusive [inhibitor, single point] | 
53 | CCOc1ccc(NCC(=O)c2ccc(C)cc2)cc1 | inconclusive [inhibitor, single point] | 
54 | CC1CCCN(C(=O)CSc2nnc3ccccn23)C1 (centres undefined) | inconclusive [inhibitor, single point] | 
55 | CNC(=S)N/N=C/c1cn(CCOc2ccccc2OC)c2ccccc12 | active: 6.51 µM | 
56 | COc1cc2c(cc1OC)CN(C(=O)/C=C/c1ccc([N+](=O)[O-])cc1)CC2 | active: 16.4 µM | 
57 | CCOC(=O)C(Cc1ccccc1)C(=O)Nc1ccc(N(CC)CC)cc1 (centres undefined) | inconclusive [inhibitor, single point] | 
58 | CN(CC(=O)Nc1ccccc1Cl)C(=O)c1cc(C2CC2)nn1-c1ccccc1 | inconclusive [inhibitor, single point] | 
59 | COc1cc(C(=O)N2Cc3cc4ccccc4nc3C2C)cc(OC)c1OC (centres undefined) | inconclusive [inhibitor, full curve, poor fit] | 
60 | Cc1ccc(C(=O)Cn2nnc(-c3ccccc3)n2)cc1 | inconclusive [inhibitor, partial curve] | 
61 | COc1ccc(NC(=O)CCNC(=O)c2ccccc2Cl)cc1OC |  | inactive: 6.55%
62 | CCc1nc2c(OCC(=O)N3CCOCC3)cccn2c1N(C)C(=O)COc1ccccc1 |  | inactive: -4.43%
63 | Cn1nccc1C(=O)N1CCCC(C(=O)c2cccc3ccccc23)C1 (centres undefined) | active: 23.1 µM | 
64 | O=c1oc2ccccc2c(Nc2ccc(O)cc2)c1[N+](=O)[O-] |  | inactive: -14.9%
65 | Cn1c(SCC(=O)N2CCCc3ccccc32)nc2ccccc2c1=O | active: 9.2 µM | 
66 | CC(=O)N[C@H]1[C@H](OCc2ccccc2F)O[C@H](COC(C)=O)[C@@H](OC(C)=O)[C@@H]1OC(C)=O |  | inactive: 2.03%
67 | Cc1nc(Cl)c(C(=O)Nc2cccc(F)c2)c(C)c1Cl | inconclusive [inhibitor, partial curve] | 
68 | Cc1ccc(OCC(=O)N2CCCC(CCC(=O)N(C)CCc3ccccn3)C2)cc1 (centres undefined) | inconclusive [inhibitor, single point] | 
69 | COc1ccc(C(=O)/C=C/C(=O)N(CC(=O)NC2CCCCC2)Cc2cccs2)c(O)c1 | active: 3.26 µM | 
70 | O=C(Nc1ccc2c(c1)Cc1ccccc1-2)c1ccc(Br)o1 | inconclusive [inhibitor, partial curve, poor fit] | 
71 | COC(=O)CSc1nc(-c2cccs2)ccc1C#N | inconclusive [inhibitor, single point] | 
72 | Cc1ccc(-c2nc(CS(=O)CC(=O)NCCN3CCCC3)c(C)o2)cc1 (centres undefined) |  | inactive: -23.8%
73 | COc1cc(NC(=O)c2nnn(Cc3ccc(SC)cc3)c2N)cc(OC)c1 | active: 29.1 µM | 
74 | CCCOP(=O)(c1ccc(N(C)C)cc1)C(O)c1cc(OC)ccc1OC (centres undefined) | inconclusive [inhibitor, single point] | 

Reference: PubChem BioAssay AID686978 (National Center for Advancing Translational Sciences (NCATS), 2013)
